The results in this text go back to the supplement of paper PMC3334620.

Whole data set: some 33,000 sequences, median “E-score (-0.5 to 0.5)” near -0.043, cut for the highest 2% near 0.37. This is one part of the list.

The target of the test is T1, Upc2 (UniProt Q12151).
T1 sequence: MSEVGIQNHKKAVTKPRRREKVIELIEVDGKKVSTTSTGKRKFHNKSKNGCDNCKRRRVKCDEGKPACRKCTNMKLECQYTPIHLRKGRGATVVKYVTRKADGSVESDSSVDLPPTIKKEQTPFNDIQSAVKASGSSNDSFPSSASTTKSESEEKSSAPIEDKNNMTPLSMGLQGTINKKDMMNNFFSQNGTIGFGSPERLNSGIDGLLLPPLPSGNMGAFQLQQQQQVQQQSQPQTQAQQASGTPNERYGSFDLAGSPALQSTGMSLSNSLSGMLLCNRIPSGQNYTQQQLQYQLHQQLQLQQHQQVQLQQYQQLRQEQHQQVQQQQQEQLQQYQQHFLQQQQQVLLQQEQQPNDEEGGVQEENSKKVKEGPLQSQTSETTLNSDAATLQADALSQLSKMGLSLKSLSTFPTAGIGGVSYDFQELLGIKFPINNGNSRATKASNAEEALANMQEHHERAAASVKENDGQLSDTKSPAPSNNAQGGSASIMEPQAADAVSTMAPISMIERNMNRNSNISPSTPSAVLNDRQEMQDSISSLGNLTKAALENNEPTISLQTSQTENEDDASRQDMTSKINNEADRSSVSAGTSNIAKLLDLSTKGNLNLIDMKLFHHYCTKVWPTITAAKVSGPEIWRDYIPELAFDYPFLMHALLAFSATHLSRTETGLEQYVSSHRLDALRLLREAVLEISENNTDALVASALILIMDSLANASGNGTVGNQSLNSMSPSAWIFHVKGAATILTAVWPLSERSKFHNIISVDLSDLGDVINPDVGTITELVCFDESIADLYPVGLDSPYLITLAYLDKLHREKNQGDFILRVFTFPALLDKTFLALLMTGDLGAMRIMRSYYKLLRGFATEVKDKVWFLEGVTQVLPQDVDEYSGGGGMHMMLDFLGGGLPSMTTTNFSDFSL
Put plainly: PBM E-score (8-mer binding enrichment) (E-score (-0.5 to 0.5)); higher = stronger / more preferred TF binding; most listed sequences are background and not binding sites. The note with it: protein concentration: 200 nM; construct: GST-full length. The method, then:
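Universal 'all 10-mer' protein binding microarrays (Agilent AMADID 015681) probed with GST-tagged S. cerevisiae TFs (full-length or DBD) made by in vitro transcription/translation (PURExpress), about 100-200 nM. Bound TF was detected with fluorescent anti-GST. Each ungapped 8-mer (which stands for itself and its reverse complement) is scored by the PBM enrichment score (E-score), a modified Wilcoxon-Mann-Whitney statistic from -0.5 to +0.5, computed with the Universal PBM Analysis Suite. Scale: above 0.35 generally sequence-specific binding.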
Take AGAGCACC: the “PBM E-score” value was -0.173.
As for TCAATACA, the figure is -0.115; as for AATGAAAG, -0.0345; as for AAGAGTCA, -0.11.
On to AGCGAGTG, for which the “PBM E-score” value amounted to 0.204.
On to GTGTGCTA, for which the “PBM E-score” value is -0.00345.
As for ATAACACC, the figure is 0.0522; as for CATGCGTC, -0.117; as for ATATCTCG, 0.187.
On to AGCCGAGC, for which the “PBM E-score” value came to 0.0562.
With GAGCGAAC, the “PBM E-score” value was found to be 0.173.
Consider CGGTATGA, for which the “PBM E-score” value is -0.0944.
Consider GAGCGTCA, for which the “PBM E-score” value was -0.069.
Consider ATAAGCAG, for which the “PBM E-score” value was determined as 0.0183.
In the case of ACCCGGGC, the “PBM E-score” value is -0.17.
ACTATACC: the “PBM E-score” value stood at 0.172.
As to CGTACGGA, the “PBM E-score” value came to 0.382.
CCTAGAGG: the “PBM E-score” value is -0.25.
As to GTTGACCA, the “PBM E-score” value was -0.0491.
Under AAGTTACT stands -0.0859; under TGTTCTAA, 0.0668.
For AACGGGAC, the “PBM E-score” value came out at 0.171.
In the case of CACCCCGA, the “PBM E-score” value is -0.194.
As for GCACGTCC, the “PBM E-score” value is -0.0769.
Turning to CGCGCGCA, the “PBM E-score” value came out at 0.158.
With ATCCTCGC, the “PBM E-score” value came out at 0.0716.
Turning to CCCTCTAA, the “PBM E-score” value is -0.181.
For CAACTCGC, the “PBM E-score” value was 0.21.
Turning to ATAGCGAA, the “PBM E-score” value was 0.0983.
For GTCACAGA, the “PBM E-score” value stood at 0.0181.
For the sequence CACGTACG, the “PBM E-score” value was 0.346.
Regarding TGAGAGAA, the “PBM E-score” value is -0.0463.
On to AGACGGTC, for which the “PBM E-score” value is -0.102.
As to CTTATTTA, the “PBM E-score” value amounted to 0.149.
In the case of TAGGCCGA, the “PBM E-score” value was -0.253.
As for CTGTTTTA, the “PBM E-score” value was 0.0439.
As for CAACATGC, the figure is 0.0797; as for CGAGTGGA, 0.0933; as for AAAAGGTC, -0.0486.
For the sequence GCACCGGA, the “PBM E-score” value was 0.0523.
Regarding CCAATACC, the “PBM E-score” value is -0.108.
As to CGTCCGTA, the “PBM E-score” value was 0.315.
Under ACCTAGAT stands -0.166; under CTTGTCCA, -0.18; under CAACAATC, 0.0112.
Turning to CAAAAAAA, the “PBM E-score” value was -0.0129.
As for CATCAGCG, the figure is 0.0238; as for TATATGGA, -0.0267; as for ACGTGTTC, -0.0353.
For TACGCTAA, the “PBM E-score” value stood at 0.22.
Regarding AGTTCCAC, the “PBM E-score” value was -0.0526.
As for ATCCAAAC, the figure is 0.184; as for CGGCGCGC, 0.0167; as for AACCAGCC, -0.161.
As to AGATTCAC, the “PBM E-score” value is -0.143.
For the sequence CCAAGTGG, the “PBM E-score” value was -0.186.
For GTATTGCA, the “PBM E-score” value was 0.0375.
As for TATATTCA, the figure is 0.167; as for TCTGTGAA, -0.0917.
As for CCCGATAA, the “PBM E-score” value was 0.0463.
With CAGTTATA, the “PBM E-score” value is 0.0276.
Under TAGTACCA stands -0.148; under CGCTCGGA, 0.163.
For AACCCCTC, the “PBM E-score” value is -0.0538.
As for CCGTAGAC, the “PBM E-score” value was 0.0288.
With ACCTTCCT, the “PBM E-score” value is -0.172.
In the case of CAATAACG, the “PBM E-score” value was found to be 0.0742.
Under AGGGGGGC stands -0.271; under AACTAGCC, -0.217; under GAAGCGGC, -0.00253.
For GACGTGAA, the “PBM E-score” value is 0.0104.
Under ACAGCAAG stands 0.0422; under ACGGCCCC, -0.172.
For CTAGTCGC, the “PBM E-score” value is -0.128.
Turning to CAGGAACA, the “PBM E-score” value was -0.0158.
For the sequence CTAGACAA, the “PBM E-score” value is -0.228.
For CCTTGCCC, the “PBM E-score” value was -0.056.
As to AGCCAAGG, the “PBM E-score” value is -0.257.
In the case of AAAACTTA, the “PBM E-score” value was found to be 0.0259.
Under TCCGTCAA stands -0.117; under ATAACTTG, -0.0841; under ATTTACAA, 0.0516.
For the sequence AATTTCAG, the “PBM E-score” value was -0.178.
In the case of AATAACCG, the “PBM E-score” value amounted to 0.199.
Under GGTCCGAA stands 0.0775; under ACACCAAC, -0.115.
